Test results: the RNAGym collection of RNA variant scans (doi:10.7554/elife.90254)
The source gives no read counts; variants with many changes may rest on few reads.

B1: LINE1-mini (parent)
chain: GGCAGAGCUCAACACAGCGUGGCAAAGUGGCUGUGGCUAGACUGCC

Variants of: B1
Assay: self-cleavage, relative activity (ratio to wild type); higher = more cleavage; in vitro, sequencing; the parent is a self-cleaving ribozyme

Variant | self-cleavage
GGCAGAACGCAAGACAGGGUGGCAGAGUGGUUGUGGCUAGACUGCC [G7A U9G C13G C18G A25G C31U] | 0.05
GGCAGAACUCAACACAGCGGGGAAAAGUGCCUGUGGCUAGACUGCA [G7A U20G C23A G30C C46A] | 0.16
GGCAGAACGCAACACAGCGUGGGAAAGUGGCUGCGGCUAGACUGCC [G7A U9G C23G U34C] | 0.02
GGCAGAACGCAACACAGCGUGCCAAAGUGGCUGUGGCUAGACUGCC [G7A U9G G22C] | 0.03
GGCAGAACUCAACACAGCGCUGCAAAGUAGCUGUCUCUAGACUGCC [G7A U20C G21U G29A G35C G36U] | 0
GGCAGAACUCAACACAGCGAGGCAAAUUGGCUGUGGCUAGACUGCC [G7A U20A G27U] | 0.04
GGCAGACCUCACCACAGCGUGGCAAUGUGGCUGUGGCUAGACUGCC [G7C A12C A26U] | 0
GGCAGACCUCCAGAUAGCAUGUCAAAGUGGCUGUGACUCGACUACC [G7C A11C C13G C15U G19A G22U G36A A39C G44A] | 0.02
GGCAGAACUCAACACAGCGCGGCAAAGUGGCUGUGGCUAGACUUCC [G7A U20C G44U] | 0.18
GGCAGAACUCAACACAGCGUGGCAAAGCGCCUGUGGCUAGACUGCC [G7A U28C G30C] | 0.06
GGCAGAACUCAACACAGCGUGGCAAAGUGGCAGUCGCUAGACUGCC [G7A U32A G35C] | 0.34
GGCAGACCUCCACACAGCGUGGUAAAGUGGCUGUGGGUAGACUGCC [G7C A11C C23U C37G] | 0.01
GGCAGAACUCAACACAGCGGGGCAAAAUGGCUGUGGCUAGAUUGCC [G7A U20G G27A C42U] | 0.13
GGCAGAACGCAACAAAGCGUGGCAAAGCGGCUGUGGCUGGAAUGCC [G7A U9G C15A U28C A39G C42A] | 0.05
GGCAGAACUCAACACAGCGUGGCAAAGUGGCGGUGGCUAGACUGGC [G7A U32G C45G] | 0.07
GGCAGAACUCAACACAGCGAGUUAAAGUGGCCGUGGCUAGACUGCC [G7A U20A G22U C23U U32C] | 0.08
GGCAGACCUCGACUCAGCGUGGCAAAGUGGCUGUCGCUAGACUGCC [G7C A11G A14U G35C] | 0.03
GGCAGACCUCCACAUAGAGUUGCAAACUGGCUGUGUCGAGGCUGCC [G7C A11C C15U C18A G21U G27C G36U U38G A41G] | 0
GGCAGACCUCGACGGAGCGUGGCAAAGUGGCUGUGGCUAGUUGGCC [G7C A11G A14G C15G A41U C42U U43G] | 0

Variant | self-cleavage
GGCAGACCUCCCCACAGCGUGGCAAAGUGGCUGUGGCUAGACUGCC [G7C A11C A12C] | 0.01
GGCAGAACUCAACACAGCGUGGCAAAGCGGCUGUGGCUUGACUGCC [G7A U28C A39U] | 0.22
GGCAGACCUCCACACAGCGUGGCAAAGUGCCUGUGGCUAGACUGCC [G7C A11C G30C] | 0.03
GGCAGACCUCUACACAGCGGGGCAAAGUGGCUGUAGCUAGACUGCC [G7C A11U U20G G35A] | 0.03
GGCAGACCUCGACCCAGCGUGUCGAAGUGGAUCUGGCUAGACUGCU [G7C A11G A14C G22U A24G C31A G33C C46U] | 0
GGCAGAACUCAACACAGCGUGGCAAAGUGGCUGGGGCUGGACUGUC [G7A U34G A39G C45U] | 0
GGCAGACCUCAGCCCAGCGUGGCAAAGUGGCUAUGGCUAGACUGCG [G7C A12G A14C G33A C46G] | 0.19
GGCAGACCUCCACACAGCGUGGCAAAGUGGGUGUGGCUAGACUUCC [G7C A11C C31G G44U] | 0.03
GGCAGAACUCAACACAGCGGGGCAAAGUGGCUGUGGCUAGGCUGCC [G7A U20G A41G] | 0.03
GGCAGACCUCGACACAGAGUGGCAAAGUGGCUGGGGCUAGACUGCC [G7C A11G C18A U34G] | 0.03
GGCAGAACGCAACACAGCGUGGCAAAGUGGCAGUGGCUAGACUGCC [G7A U9G U32A] | 0.01
GGCAGAACUCAACACAGCGUGGCAAAGACGCUGUGGCUAGACUGCC [G7A U28A G29C] | 0.12
GGCAGACCUCCACACAGCGUGGCAAAGUGGCUGUGGCUAGACUUCC [G7C A11C G44U] | 0.02
GGCAGAACUCAACACAGCGUGGCAAAGUGGCUGUGGCGAGACUACC [G7A U38G G44A] | 0.01
GGCAGAACUCAACACAGCGAGGCAAAGUGGCUGUGGCUAGACUGGC [G7A U20A C45G] | 0.25
GGCAGAACGCAACACAGCCUGUCAAAGAUGCUGUGGCUGGACUGUC [G7A U9G G19C G22U U28A G29U A39G C45U] | 0.04
GGCAGAACUCAACACAGCGUGGCAAAGUGGCAGUGGUUAGAGUGCC [G7A U32A C37U C42G] | 0.06
GGCAGAACGCAACACAGCGCGGCAAAGUUGCUGUGGCUAGACUGGC [G7A U9G U20C G29U C45G] | 0.06
GGCAGAACGGAACACAGCGUGGCAAAGUGGCUGUGGCUAGACUCCC [G7A U9G C10G G44C] | 0.01

Variant | self-cleavage
GGCAGACCUCUACAGAGCGUGGCAAAGUGGCUGUGGCUAGCCUGCC [G7C A11U C15G A41C] | 0
GGCAGACCUCCACACAGAGUGGCAAAGUUGCUGUCGCUAGACUGCC [G7C A11C C18A G29U G35C] | 0.04
GGCAGAACUCAACACAGCGCGUCAAAGAGGCUGUGGGUACACUGCC [G7A U20C G22U U28A C37G G40C] | 0.03
GGCAGACCUCGACACAGUGUGGCAAAAUGGCUGUGGCUAGACUGCC [G7C A11G C18U G27A] | 0.01
GGCAGACCUCACCACAGCGUUGCAAAGUGGCUGUGGAUAGACUGCC [G7C A12C G21U C37A] | 0.01
GGCAGAACUCAACACAGCGGGACAAAGUGGCUGUGGCGAGACUGCC [G7A U20G G22A U38G] | 0
GGCAGAACUCAACACAGCGUGGCAAAGAGGCUGUGUAUAGACUGCC [G7A U28A G36U C37A] | 0.07
GGCAGAACUCAACACAGCGUGGCAAAGGGGCUGUGGCUAGACUAUC [G7A U28G G44A C45U] | 0.16
GGCAGAACUCAACACAGCGGGGCAAAGUGGCUGUGGCUAGACUUAC [G7A U20G G44U C45A] | 0.16
GGCAGACCUCUACACCGUGUGGCAAAGUGUCUGUGGCUAGACUGAC [G7C A11U A16C C18U G30U C45A] | 0.01
GGCAGACCUCUACCCAGCGUGGCAAAGUGGCUGUGGCUAGACUGCC [G7C A11U A14C] | 0.06
GGCAGAACUCAACACAGCGAGGCAAAGUGGAUGUUGCUAGACUGCC [G7A U20A C31A G35U] | 0.03
GGCAGACCUCUACACAGCGUGGCAAAAUGGCUGUGGCUAGACUGCC [G7C A11U G27A] | 0.01
GGCAGAACUCAACACAGCGGGGCAAAGUGGCUGUGGCUAGACAGCC [G7A U20G U43A] | 0.01
GGCAGACCUCACCACCGCGUGGCAAAGUGGCUGUAGCGAAAGUGCC [G7C A12C A16C G35A U38G G40A C42G] | 0.06
GGCAGACCUCGACACAGAGUGGCAAAGUGGCUUUGGCUAGACUGCC [G7C A11G C18A G33U] | 0.01
GGCAGAACUCAACACAGCGCGGCAAAGUGGCUGUAGCUAGAAUGCC [G7A U20C G35A C42A] | 0.16
GGCAGAACUCAACACAGCGAUGCUAAGUAGCUGUGGCUAUUCUGCC [G7A U20A G21U A24U G29A G40U A41U] | 0.04
